Source: PubChem BioAssay AID1508623 (National Center for Advancing Translational Sciences (NCATS), 2021)
Out of some 48,000 compounds screened, about 450 (0.94%) were called active. About 19% were inconclusive and are not listed. Calls follow the shape of the dose curve; as a rule, active = well fitted inhibition curve with a large enough effect; inconclusive = small, poorly fitted or top-dose-only effect; inactive = no such curve, though single readings can be large or run the other way. The list shows a part of the results.

Test: Primary qHTS for Identification of Small Molecule Inhibitors of Huntingtin Promoter Activity; also: nearly all actives have a fitted effect of over 50% in size
Details: HEK293 HTT promoter firefly luciferase reporter (activity 0% = vehicle and -100% = no light), 24 h; series mostly up to 57.5 µM; activity change, negative = inhibition: at the top concentration
In short: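 Firefly luciferase readout (Dual-Glo, 10 min RT) after 24 h, 37 °C compound exposure (final up to 57.5 uM) of HEK293 reporter cells cultured 24 h beforehand; PTC124 at 50 uM final as control inhibitor; activity scaled vehicle 0%, zero RLU -100%.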
Potency is read from the fitted curve at half-maximal effect.

Row | SMILES | activity change, negative = inhibition | Potency
1 | Cc1ccc(-c2cn3c(n2)sc2cc(C(=O)NCCCc4ccccc4)ccc23)cc1 | inactive: 12.5% | –
2 | CCc1ccccc1NC(=O)C1CCCN(S(=O)(=O)c2cccc3nsnc23)C1 (centres undefined) | inactive: -8.6% | –
3 | COc1ccc(CCNC(=O)CCc2c(C)nc3c(c(C)nn3-c3ccc(C)cc3)c2C)c(OC)c1 | inactive: -9.9% | –
4 | Cc1ccc(-n2c3c(c(=O)[nH]c2=O)C(NC(=O)c2ccccc2F)(C(F)(F)F)C(=O)N3)cc1C (centres undefined) | inactive: -3.53% | –
5 | CCN(CCCNC(=O)c1cc2c(=O)n(CC)c3ccccc3c2s1)c1cccc(C)c1 | inactive: 12.5% | –
6 | Cc1ccccc1-c1nc(CS(=O)(=O)CC(=O)NC(C)c2ccccc2)c(C)o1 (centres undefined) | inactive: -27.7% | –
7 | CCc1ccc(N2CCn3c2nc2c3c(=O)n(Cc3ccc(F)cc3)c(=O)n2C)cc1 | inactive: 0.314% | –
8 | COc1cc(-c2noc(C3CC(=O)N(c4ccc5c(c4)OCCO5)C3)n2)cc(OC)c1OC (centres undefined) | inactive: -32.7% | –
9 | O=C(Nc1cc(F)ccc1F)C1COc2ccccc2C1 (centres undefined) | inactive: -3.03% | –
10 | CCN(CC)CC(=O)Nc1c(C)cccc1C | inactive: -6.31% | –
11 | Cc1ccc(CNc2ccc(-c3nc(-c4ccco4)no3)cc2[N+](=O)[O-])cc1 | inactive: -6.97% | –
12 | COc1ccc(C(=O)Nc2ccc(-n3nncc3-c3ccc(OC)c(OC)c3)cc2)cc1 | inactive: 0.41% | –
13 | Cc1ccc(S(=O)(=O)c2nc(-c3ccccc3)oc2N2CCN(c3ccccc3)CC2)cc1 | inactive: -11.6% | –
14 | Cc1ccc(-c2cc(C(=O)O)n(Cc3ccccc3)n2)cc1 | inactive: 36.1% | –
15 | Cc1nn(CC(=O)NCCc2ccccc2Cl)c(=O)c2nn(-c3ccccc3)c(C)c12 | inactive: -23.7% | –
16 | CCOc1ccc(CNC(=O)Cn2nc(C)c3nn(-c4ccc(Cl)cc4)c(C)c3c2=O)cc1OC | inactive: -4.23% | –
17 | CCC(C)NC(=O)c1sc2nc(C)c(C(=O)Nc3ccc(C)cc3C)c(-c3ccc(Cl)cc3)c2c1N (centres undefined) | inactive: -7.93% | –
18 | CC(=O)OCC(=O)[C@@]12OC(C)(C)O[C@@H]1C[C@H]1[C@@H]3C[C@H](F)C4=CC(=O)C=C[C@]4(C)[C@@]3(F)[C@@H](O)C[C@@]12C | inactive: 7% | –
19 | COc1ccc(CNCc2c(C(=O)O)c(C)n(Cc3ccc(Cl)cc3)c2C)c(OC)c1 | inactive: -15.4% | –
20 | c1ccc2c(CC3=NCCN3)cccc2c1 | inactive: -2.41% | –
21 | Cc1ccc2c(c1)c1c(c(=O)n(-c3ccccc3C)c(=O)n1CC(=O)NCCC1=CCCCC1)n2C | inactive: -7.63% | –
22 | CC(=O)c1cc(-c2ccc(F)cc2)n(CCC(=O)Nc2nc3c(C)cccc3s2)c1C | inactive: -7.86% | –
23 | Cc1ccc(Cc2nc3ccccc3nc2SCC(=O)Nc2cccc(C(F)(F)F)c2)cc1 | inactive: -28.1% | –
24 | O=C(CN1CCSc2ccccc21)N1CCN(c2cccc(Cl)c2)CC1 | inactive: -33.2% | –
25 | COC(=O)c1cnn(-c2ccc(C(=O)Nc3ccc(C(C)=O)cc3)cc2)c1N | inactive: -1.34% | –

Row | SMILES | activity change, negative = inhibition | Potency
26 | CC(C)(C)c1ccc(S(=O)(=O)NCc2nc3cccnc3n2Cc2ccccc2Cl)cc1 | inactive: -21.8% | –
27 | CC(C)c1ccccc1NC(=O)CN1C(=O)c2cccc3cccc1c23 | inactive: -29.2% | –
28 | CCC(=O)Nc1ccc2nc(SCc3ccc(C)cc3)sc2c1 | inactive: -3.68% | –
29 | O=C(CSc1nc(-c2ccccc2)[nH]c1-c1ccccc1)Nc1ccc2c(c1)OCCO2 | inactive: -29.4% | –
30 | CCCSCCCNC(=O)c1ccc2c(c1)nc1n2CCCCC1 | inactive: 21.2% | –
31 | Cc1ccc(Nc2cc(C)c(C#N)c3nc4ccccc4n23)cc1Cl | inactive: -4.74% | –
32 | CC(C)c1cc(-c2nc(-c3ccccc3)no2)n[nH]1 | inactive: 29.7% | –
33 | COc1ccc(S(=O)(=O)N2CCN(Cc3ccc4c(c3)OCO4)CC2)cc1OC | inactive: -26.9% | –
34 | COCCNC(=O)c1nn(-c2ccc(Cl)cc2)nc1CO | inactive: 8.58% | –
35 | COc1ccc(CNC(=O)c2cc3c(=O)n(C)c4ccccc4c3n2C)cc1 | inactive: -1.13% | –
36 | Cn1cnc(S(=O)(=O)N2CCC(C(=O)NCc3ccc(Cl)cc3)CC2)c1 | inactive: -14.8% | –
37 | O=C(CSc1ccccc1)NCc1ccc2c(c1)CCN2C(=O)c1ccc(F)cc1 | inactive: -10.4% | –
38 | CCOc1cc(C2CC(=O)Nc3nc(SCc4ccccc4)[nH]c(=O)c32)ccc1O (centres undefined) | inactive: -26.3% | –
39 | O=C(Nc1cccc2cccnc12)c1ccc(F)cc1 | inactive: 65% | –
40 | CCc1ccc2oc(-c3ccc(NC(=O)c4cc(OC)c(OC)c(OC)c4)cc3)nc2c1 | inactive: -7.91% [at 11.5 µM] | –
41 | CCOC(=O)c1ccc(N2C(=O)c3[nH]nc(-c4ccc(OCC)cc4)c3C2c2ccc(OC)cc2OC)cc1 (centres undefined) | inactive: -25.3% | –
42 | CCc1ccc(CNC(=O)CCCN2C(=O)c3cccnc3Oc3ccc(Cl)cc32)cc1 | inactive: -11.9% | –
43 | Cc1ccccc1-c1nnc(C2CCN(S(=O)(=O)c3ccc(Cl)cc3)CC2)o1 | – | active: 15.8 µM
44 | O=C(COc1ccccc1)Nc1nnc(S(=O)(=O)N2CCCCCC2)s1 | inactive: -23.2% | –
45 | COc1cccc(N2CCN(C(=O)CCc3c(C)nc4c(c3C)c(=O)n(C)c(=O)n4C)CC2)c1 | inactive: -6.27% | –
46 | CCC(C)NC(=O)c1ccc2c(c1)N(Cc1ccccc1)C(=O)c1ccccc1S2 (centres undefined) | inactive: -21.2% | –
47 | CCN(CC)c1cc2c(cc1F)c(=O)c(S(=O)(=O)c1ccc(OC)cc1)cn2CC | inactive: -19.5% | –
48 | COc1ccc(-c2nc(CN3CCC(C(=O)NCc4ccccc4)CC3)c(C)o2)cc1OC | inactive: 6% | –
49 | Cn1nnc2c(N3CCN(c4ccccc4Cl)CC3)ncnc21 | inactive: -17.8% | –
